Assay results published in publication PMC4336329 (PLoS ONE, 2015).
The whole screen tested about 310,000 compounds, of which about 14,000 (4.5%) showed an effect of 50% or more. The effect is printed as a negative number. The list shows a part of the results.

What follows are compounds tested against human ether-à-go-go-related gene (hERG) potassium channel (human, UniProt Q12809) (assay: primary screen, population patch clamp on CHO cells stably expressing hERG).
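Also: peak tail current of the secondary pulse compared with the same well before compound.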

Chain of human ether-à-go-go-related gene (hERG) potassium channel (Q12809 whole entry, looked up): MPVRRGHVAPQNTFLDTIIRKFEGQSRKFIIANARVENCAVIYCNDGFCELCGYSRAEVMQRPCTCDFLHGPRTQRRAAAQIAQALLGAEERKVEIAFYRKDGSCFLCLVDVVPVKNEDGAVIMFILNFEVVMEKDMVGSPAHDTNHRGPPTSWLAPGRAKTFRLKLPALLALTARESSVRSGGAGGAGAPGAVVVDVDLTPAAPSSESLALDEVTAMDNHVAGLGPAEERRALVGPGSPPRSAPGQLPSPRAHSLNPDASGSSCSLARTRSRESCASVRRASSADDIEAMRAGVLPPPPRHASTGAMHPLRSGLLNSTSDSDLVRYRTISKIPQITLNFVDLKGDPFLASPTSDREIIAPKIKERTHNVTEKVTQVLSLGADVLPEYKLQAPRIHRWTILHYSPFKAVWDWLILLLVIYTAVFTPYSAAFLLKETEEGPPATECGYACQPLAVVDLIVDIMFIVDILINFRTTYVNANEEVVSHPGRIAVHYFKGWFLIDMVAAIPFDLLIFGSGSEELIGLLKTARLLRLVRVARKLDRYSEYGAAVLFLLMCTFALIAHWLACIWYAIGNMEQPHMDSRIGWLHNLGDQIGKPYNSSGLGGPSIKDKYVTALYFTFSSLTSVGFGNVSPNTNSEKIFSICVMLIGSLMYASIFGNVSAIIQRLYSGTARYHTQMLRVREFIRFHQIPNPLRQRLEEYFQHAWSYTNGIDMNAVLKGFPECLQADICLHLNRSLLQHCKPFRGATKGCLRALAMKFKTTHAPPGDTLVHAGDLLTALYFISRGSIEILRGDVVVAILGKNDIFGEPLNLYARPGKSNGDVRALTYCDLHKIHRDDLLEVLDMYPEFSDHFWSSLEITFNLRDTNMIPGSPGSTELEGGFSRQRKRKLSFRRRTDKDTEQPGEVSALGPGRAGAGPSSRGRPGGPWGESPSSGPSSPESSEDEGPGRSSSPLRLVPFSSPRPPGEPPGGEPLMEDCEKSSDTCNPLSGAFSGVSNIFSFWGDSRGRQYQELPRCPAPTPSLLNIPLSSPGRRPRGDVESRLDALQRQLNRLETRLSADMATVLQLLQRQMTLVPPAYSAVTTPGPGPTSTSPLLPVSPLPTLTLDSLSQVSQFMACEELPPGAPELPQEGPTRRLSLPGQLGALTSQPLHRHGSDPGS

**Q.** With CCCS(=O)(=O)c1ccc(COC(=O)Cc2ccc([N+](=O)[O-])cc2)cc1 as the compound, how does the “hERG current change (%, negative = inhibition) at 10uM” value read?
**A.** -48.5%

**Q.** How did the “hERG current change (%, negative = inhibition) at 10uM” value turn out when COc1cc(OC)c(OC)cc1/C=N/NC(=O)c1cnccn1 was run?
**A.** 2.07%

**Q.** For CCOc1ccccc1OCC(=O)OCC(=O)c1c(C)[nH]c2ccccc12, which “hERG current change (%, negative = inhibition) at 10uM” value is on record?
**A.** 3.42%

**Q.** How did the “hERG current change (%, negative = inhibition) at 10uM” value turn out when COc1ccc(NC(=O)CN(C)C(=O)c2ccc(NS(=O)(=O)c3ccc(C)c([N+](=O)[O-])c3)cc2)cc1 was run?
**A.** -2.55%

**Q.** Which “hERG current change (%, negative = inhibition) at 10uM” value does the source give for C=COCCn1c(C)c(C(=O)OCC)c2cc(O)ccc21 here?
**A.** 6.49%

**Q.** For CC(c1ccccc1)N1CCn2c(nc3cc(NC(=O)c4cccs4)ccc32)C1 (stereo not shown), which “hERG current change (%, negative = inhibition) at 10uM” value is on record?
**A.** -23.4%

**Q.** Cc1ccc(C2CC(=O)C=C(NCc3ccccc3)C2)cc1 (stereo not shown) was tested. Which “hERG current change (%, negative = inhibition) at 10uM” value did it give?
**A.** -38.8%

**Q.** With COc1ccc(CCNC(=O)COc2ccc(N(C)S(=O)(=O)c3ccc(C)cc3)cc2)cc1 as the compound, how does the “hERG current change (%, negative = inhibition) at 10uM” value read?
**A.** 6.95%

**Q.** For COc1ccc(CNC(=O)[C@H](Cc2c[nH]c3ccccc23)NC(=O)[C@@H]2Cc3ccccc3CN2)cc1, which “hERG current change (%, negative = inhibition) at 10uM” value is on record?
**A.** -53.9%

**Q.** How did the “hERG current change (%, negative = inhibition) at 10uM” value turn out when O=C(Nc1ccc(C(F)(F)F)cc1)C1=NN(C2CCS(=O)(=O)C2)C(=O)CC1 (stereo not shown) was run?
**A.** -8.18%

**Q.** With CC(C)Cn1c(=O)c(C(=O)Nc2cnccn2)c(O)c2ccccc21 as the compound, how does the “hERG current change (%, negative = inhibition) at 10uM” value read?
**A.** 9.07%

**Q.** With CCCP(=O)(CC(=O)O)c1ccccc1 (stereo not shown) as the compound, how does the “hERG current change (%, negative = inhibition) at 10uM” value read?
**A.** 10.6%

**Q.** O=C(NC1CCCCC1)C1CCN(S(=O)(=O)N2CCOCC2)CC1 was tested. Which “hERG current change (%, negative = inhibition) at 10uM” value did it give?
**A.** 5.92%

**Q.** C=CCSC(=C(C#N)C#N)c1cc2c([nH]1)CCCC2 was tested. Which “hERG current change (%, negative = inhibition) at 10uM” value did it give?
**A.** -1.75%

**Q.** With O=C(CN(Cc1ccccc1)S(=O)(=O)c1ccc(F)cc1)NCc1ccccn1 as the compound, how does the “hERG current change (%, negative = inhibition) at 10uM” value read?
**A.** -10.6%

**Q.** With Cc1ccc(C(=O)O)cc1NC(=O)C1CCCN1S(=O)(=O)c1cccc2nsnc12 (stereo not shown) as the compound, how does the “hERG current change (%, negative = inhibition) at 10uM” value read?
**A.** 10.9%

**Q.** With CC1=C(C(=O)Nc2ccccc2)C(c2ccccn2)n2nc(CCCO)nc2N1 (stereo not shown) as the compound, how does the “hERG current change (%, negative = inhibition) at 10uM” value read?
**A.** 8.03%

**Q.** How did the “hERG current change (%, negative = inhibition) at 10uM” value turn out when O=S(=O)(NCCSc1ccc(Cl)cc1)c1ccc(F)cc1 was run?
**A.** 0.267%

**Q.** How did the “hERG current change (%, negative = inhibition) at 10uM” value turn out when Cc1nn(CCCC(=O)Nc2sc3c(c2C#N)CCC3)c(C)c1[N+](=O)[O-] was run?
**A.** -8.25%

**Q.** With O=C(Nc1ccccc1N1CCOCC1)c1cccc([N+](=O)[O-])c1 as the compound, how does the “hERG current change (%, negative = inhibition) at 10uM” value read?
**A.** -17.7%

**Q.** How did the “hERG current change (%, negative = inhibition) at 10uM” value turn out when N#Cc1c(NC(=O)COC(=O)c2nccnc2N)sc2c1CCCC2 was run?
**A.** -3.17%

**Q.** CN1C(=O)/C(=C/C=C2\SCCN2C)OC1=S was tested. Which “hERG current change (%, negative = inhibition) at 10uM” value did it give?
**A.** 15.6%

**Q.** How did the “hERG current change (%, negative = inhibition) at 10uM” value turn out when Cc1c(-c2csc(N)n2)cnn1C was run?
**A.** 15.5%

**Q.** How did the “hERG current change (%, negative = inhibition) at 10uM” value turn out when Cc1ccc(C(=O)NC(=S)Nc2ccc3[nH]c(=O)[nH]c3c2)cc1C was run?
**A.** 11.2%

**Q.** With CC(=O)c1ccc(N2CCN(C(=O)CCC(=O)Nc3ccc4nc(N5CCN(C)CC5)cc(C)c4c3)CC2)cc1 as the compound, how does the “hERG current change (%, negative = inhibition) at 10uM” value read?
**A.** 20.3%

**Q.** For CCc1cc(=O)oc2cc(C)cc(OCC(=O)NCC3CCC(C(=O)O)CC3)c12 (stereo not shown), which “hERG current change (%, negative = inhibition) at 10uM” value is on record?
**A.** 4.34%

**Q.** How did the “hERG current change (%, negative = inhibition) at 10uM” value turn out when O=C(Nc1ccccc1C(=O)NCC1CCCO1)c1ccccc1 (stereo not shown) was run?
**A.** -7.42%

**Q.** With CCN(CC)S(=O)(=O)c1ccc(O)c(C(=O)OCC(=O)NC2CCCC2)c1 as the compound, how does the “hERG current change (%, negative = inhibition) at 10uM” value read?
**A.** -3.07%

**Q.** For O=C(O)CN1C(=O)/C(=C\c2ccccc2OCc2ccc(Cl)cc2Cl)SC1=S, which “hERG current change (%, negative = inhibition) at 10uM” value is on record?
**A.** 13%

**Q.** How did the “hERG current change (%, negative = inhibition) at 10uM” value turn out when Cc1ccc(OCC(=O)Nc2ccc(CN3CCCCC3)cc2)c(C)c1 was run?
**A.** -69.4%

**Q.** With Br.C1=C(c2ccccc2)N2CCN=C2S1 as the compound, how does the “hERG current change (%, negative = inhibition) at 10uM” value read?
**A.** -7.6%

**Q.** With O=C(O)C1CCCCC1C(=O)Nc1ccc(S(=O)(=O)N2CCCCC2)cc1 (stereo not shown) as the compound, how does the “hERG current change (%, negative = inhibition) at 10uM” value read?
**A.** 12.5%

**Q.** CCOC(=O)CCS(=O)(=O)c1nc(-c2ccccc2)cc(C(F)(F)F)n1 was tested. Which “hERG current change (%, negative = inhibition) at 10uM” value did it give?
**A.** -19.4%

**Q.** Which “hERG current change (%, negative = inhibition) at 10uM” value does the source give for CC(C)C(C)(C#N)NC(=O)CSc1ncnc2sc(-c3ccccc3)cc12 (stereo not shown) here?
**A.** -6.64%

**Q.** For COc1ccc2nc(/N=C/c3cccc(OC)c3O)sc2c1, which “hERG current change (%, negative = inhibition) at 10uM” value is on record?
**A.** 2.75%

**Q.** With Cc1ccc(N2C(=O)C3C(c4ccccc4)N4CCCN4C3(C)C2=O)cc1 (stereo not shown) as the compound, how does the “hERG current change (%, negative = inhibition) at 10uM” value read?
**A.** -0.37%

**Q.** CCc1noc(C)c1C(=O)NNC(=O)c1ccccc1 was tested. Which “hERG current change (%, negative = inhibition) at 10uM” value did it give?
**A.** -1.03%

**Q.** How did the “hERG current change (%, negative = inhibition) at 10uM” value turn out when NC(=O)c1nsc(C(=O)N(c2ccc3c(c2)OCCO3)C(C(=O)NCC2CCCO2)c2ccc(F)cc2)c1N (stereo not shown) was run?
**A.** -16.4%

**Q.** Which “hERG current change (%, negative = inhibition) at 10uM” value does the source give for COc1cc(C(=O)NNC(=O)c2ccc(NC(=O)C(C)(C)C)cc2)cc(OC)c1OC here?
**A.** 7.94%

**Q.** How did the “hERG current change (%, negative = inhibition) at 10uM” value turn out when CCOC(=O)c1c(/N=C/c2c(O)n(-c3ccc(F)cc3)c(=S)[nH]c2=O)sc2c1CCCC2 was run?
**A.** 14.4%

**Q.** How did the “hERG current change (%, negative = inhibition) at 10uM” value turn out when COc1ccc(C2=NN(c3nc4ccccc4s3)C(=O)/C2=C\N(C)C)cc1 was run?
**A.** 15.7%

**Q.** With Cc1ccc(-c2nnn(CC(=O)N(Cc3cccs3)C(C(=O)NC3CCCCC3)c3ccco3)n2)o1 (stereo not shown) as the compound, how does the “hERG current change (%, negative = inhibition) at 10uM” value read?
**A.** -4.06%

**Q.** For COC(C/C=C/[C@@H](O)COCc1ccccc1)OC, which “hERG current change (%, negative = inhibition) at 10uM” value is on record?
**A.** 1.32%

**Q.** How did the “hERG current change (%, negative = inhibition) at 10uM” value turn out when O=C(CCCCCNC(=O)N1CCn2c1nc1ccccc12)NCCc1ccccc1 was run?
**A.** 9.42%

**Q.** Which “hERG current change (%, negative = inhibition) at 10uM” value does the source give for COC(=O)c1ccccc1NCC(=O)c1ccc(OC)cc1 here?
**A.** 14.1%

**Q.** For N#C/C(=C/c1ccc([N+](=O)[O-])cc1)C(=O)Nc1ccccc1O, which “hERG current change (%, negative = inhibition) at 10uM” value is on record?
**A.** 4.73%

**Q.** Which “hERG current change (%, negative = inhibition) at 10uM” value does the source give for CC(C)C(NC(=O)c1c(F)cccc1F)C(=O)NCC(c1ccccc1)N(C)C (stereo not shown) here?
**A.** 9.22%

**Q.** O=S(=O)(c1cccc2nsnc12)N1CCN(Cc2ccccc2)CC1 was tested. Which “hERG current change (%, negative = inhibition) at 10uM” value did it give?
**A.** 2.46%

**Q.** For CCOC(=O)C1CCN(C(=O)c2ccc(OC3CCN(C(=O)CCOC)CC3)cc2)CC1, which “hERG current change (%, negative = inhibition) at 10uM” value is on record?
**A.** 8.91%

**Q.** For Cn1cccc1CC(=O)N/N=C\c1ccccc1, which “hERG current change (%, negative = inhibition) at 10uM” value is on record?
**A.** 15.4%

**Q.** With Cc1cc(OCC(=O)N2CCC(O)(c3ccc(Cl)cc3)CC2)c2c(C)cc(=O)oc2c1 as the compound, how does the “hERG current change (%, negative = inhibition) at 10uM” value read?
**A.** 4.23%

**Q.** For Cn1ccnc1SCc1cn2ccccc2n1, which “hERG current change (%, negative = inhibition) at 10uM” value is on record?
**A.** 10.7%

**Q.** For COc1cc(C(=O)NCCSc2ccc(F)cc2)cc(OC)c1OC, which “hERG current change (%, negative = inhibition) at 10uM” value is on record?
**A.** -10.7%

**Q.** For O=C(COc1ccc(Cl)cc1Cl)Nc1ccc2nc3n(c(=O)c2c1)CCCC3, which “hERG current change (%, negative = inhibition) at 10uM” value is on record?
**A.** 0.771%

**Q.** With O=C(O)c1cc(S(=O)(=O)Nc2ccc3c(c2)OCCO3)c(Cl)cc1Cl as the compound, how does the “hERG current change (%, negative = inhibition) at 10uM” value read?
**A.** -1.96%
